Test results reported in patent publication US20240425574A1, “ANTI-PDGF-B ANTIBODIES AND PHARMACEUTICAL COMPOSITION THEREOF” (Regeneron Pharmaceuticals, Inc., priority 2021, published 2024).

Columns and labels:
monkey PDGF-BB = experiment: Biacore T200/MASS-2 binding kinetics at 25° C. (Examples 8, 14); design: species or system Macaca fascicularis
Description: 90 nM of human and monkey PDGF-BB were prepared, and serially diluted 3-fold. The sample was injected at 25 uL/minute for 3 minutes and the dissociation was monitored for 10 minutes. The kinetics parameters were evaluated by fitting the real time data using 1:1 binding model with mass transport limitation.
(§1) The equilibrium dissociation constant (KD) for PDGF-BB binding to different PDGF-BB monoclonal antibodies (mAbs) was determined using a real-time surface plasmon resonance biosensor using a Biacore T200 or MASS-2 instrument. All binding studies were performed in 10 mM HEPES, 300 mM NaCl, and 0.05% v/v Surfactant Tween-20, pH 7.4 (HBS-P) running buffer at 25° C. The sensor chip surface was first derivatized by amine coupling with human Fc specific mouse mAb (REGN2567) to capture different PDGF-BB mAbs. […] At the end of each cycle, the PDGF-BB mAb captured surface was regenerated using a 10-12 seconds injection of 20 mM phosphoric acid.
(§2) The association rate (ka) and dissociation rate (kd) were determined by fitting the real-time binding sensorgrams to a 1:1 binding model with mass transport limitation using Scrubber 2.0c curve-fitting software. Binding dissociation equilibrium constant (KD) and dissociative half-life (t½) were calculated from the kinetic rates as: […]

hypoxia/sugen PAH mice = assay type: in vivo, mouse
Description: For the second study (Study 2), 12 to 14 weeks old male C57/BL mice, (Taconic) were used for the studies. Mice were separated into treatment groups by weight such that starting body weights were similar among different groups. […] Mice in hypoxia chamber were given VEGF receptor inhibitor Sugen5146 at 20 mg/kg subcutaneously once a week for 6 weeks. The mice were administered antibodies starting on day 21 for 3 weeks as outlined in Table 12. By the end of week 6, right ventricular systolic pressure (RVSP) was measured by right heart catheterization and RV hypertrophy was calculated by Fulton index as the weight ratio of RV and (LV+septum). […]
Mice were anesthetized with isoflurane and were kept at approximately 37° C. using a heated platform (Heated Hard Pad 1, Braintree Scientific) and circulating heated water pump (T/Pump Classic, Gaymar Industries). […] The catheter was connected to pressure/volume instrument (MPVS-300, Millar Instruments, Inc.) that measured heart rate as well as both diastolic and systolic right ventricular pressures. […] Readings were quantified from a 60 second interval of the pressure tracing (following a 2 minute period of recording to allow for pressure stabilization). The parameters analyzed were right ventricular systolic pressures (RVSP), heart rate (HR) and rate of right ventricular pressure rise (dP/dt max). […]

human PDGF-BB = human PDGF-BB (Homo sapiens, UniProt P01127); settings: all 1 nM PDGF treatments; anti-PDGF-B antibodies at 60 seconds
Description: Upon reaching 100% confluency in the well, PDGF driven calcium flux was assessed via the FLIPR® Calcium 5 Assay Kit (Molecular Devices, Cat #R8185) on the FLIPR Tetra System (Molecular Devices) following the manufacturer's protocol. Briefly, complete media was replaced with 50 μL assay media (DMEM-0.1% BSA-1× Penicillin/Streptomycin/L-Glutamine). The Calcium 5 dye was then reconstituted in the supplied buffer in the presence of probenecid (Thermofisher, Cat #P36400). […] A 1 nM concentration of PDGF-AB, PDGF-BB and the combination treatment PDGF-AB/BB was chosen as a constant to assess antibody inhibition. […] Antibodies were pre-incubated with PDGF proteins for 30-minutes before addition onto the cells via the FLIPR tetra system. Calcium flux traces were assessed at both 60 seconds and over the full-time course of 5 minutes. These calcium traces were analyzed for their Max-Min values using the SoftMax Pro Software (Molecular Devices).

rat PDGF-BB = rat PDGF-BB (Rattus norvegicus, UniProt Q05028); experiment: Biacore T200/MASS-2 binding kinetics at 25° C. (Example 14)
Description: as §1, §2

rat PDGF-BB, sequence (Q05028 74-182 limits assumed): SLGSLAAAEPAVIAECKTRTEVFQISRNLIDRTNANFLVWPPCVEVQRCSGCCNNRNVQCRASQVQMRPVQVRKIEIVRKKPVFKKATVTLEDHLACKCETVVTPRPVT
human PDGF-BB, sequence (P01127 82-190 limits assumed): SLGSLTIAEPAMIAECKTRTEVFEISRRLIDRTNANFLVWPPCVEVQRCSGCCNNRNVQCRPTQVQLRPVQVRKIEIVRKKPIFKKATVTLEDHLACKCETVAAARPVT

B1: H4H13145P: fully human anti-PDGF-B mAb, human IgG4 Fc; HCVR/LCVR SEQ ID NOs: 2/10, HC/LC 18/20 (antibody)
heavy: QVQLVQSGTEVKKPGASVKVSCKASGYTYGAYAISWVRQAPGQGLEWMGWISAYNGNTNYAQKFQDRVTMTTDTSTNTAYMELRGLKSDDTAVYFCARAWNSFDYWGQGTLVTVSSASTKGPSVFPLAPCSRSTSESTAALGCLVKDYFPEPVTVSWNSGALTSGVHTFPAVLQSSGLYSLSSVVTVPSSSLGTKTYTCNVDHKPSNTKVDKRV[human IgG4 Fc with S228P (EU numbers) left out here]
light: DIQMTQSPSSLSASVGDRVTITCQASQDIRKNLNWYQQKPGKAPKLLISDASTLETGVPSRFSGSGSGTDFTFTISSLQPEDIAKYYCQQYYNLPFTFGPGTKVDIKRTVAAPSVFIFPPSDEQLKSGTASVVCLLNNFYPREAKVQWKVDNALQSGNSQESVTEQDSKDSTYSLSSTLTLSKADYEKHKVYACEVTHQGLSSPVTKSFNRGEC
Monkey PDGF-BB; 30 nM mfPDGF-BB over captured mAb
  30 nM mfPDGF-BB Bound (RU): 73.4 RU
Monkey PDGF-BB; MASS-2
  binding to commercial Monkey PDGF-BB: specific binding
Monkey PDGF-BB; monkey PDGF-BB
  ka: 930000 M⁻¹ s⁻¹
  kd: 1.5e-05 s⁻¹
hypoxia/sugen PAH mice; 1, 3, 10 and 25 mg/kg SC 2x/week from day 21, week 6
  right ventricular systolic pressure elevation: significantly reduced
hypoxia/sugen PAH mice; Hypoxia/Sugen Mice - Therapeutic dose response, dose mg/kg: H4H13145P 1, Macitentan 30, REGN2176 25
  Reduction in RVSP: 6 mmHg
Human PDGF-BB
  inhibition of PDGF mediated calcium flux in words: complete inhibition
Rat PDGF-BB; 15 nM rPDGF-BB over captured mAb
  15 nM rPDGF-BB Bound (RU): 35.3 RU
Rat PDGF-BB; rat PDGF-BB
  ka: 2.25e+06 M⁻¹ s⁻¹
  kd: 0.000282 s⁻¹
